Data published in the supplement of paper PMC9446081.
About 220 (0.56%) of roughly 39,000 compounds showed activity. The list shows a part of the results.

The compounds below were run on Escherichia coli K-12 BW25113 (assay: relative growth (OD600 normalised to plate interquartile mean) (fraction); higher = less growth inhibition, active = 0.2 or less). Conditions: 50 µM; LB; incubation time: overnight (16-24 h).
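Note: static incubation at 37 °C against the wild-type strain, values averaged over two biological replicates.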

Structure (SMILES) | relative growth
CO[C@H]1C[C@@H]2CC[C@@H](C)[C@@](O)(O2)C(=O)C(=O)N2CCCC[C@H]2C(=O)O[C@H]([C@H](C)C[C@@H]2CC[C@@H](OP(C)(C)=O)[C@H](OC)C2)CC(=O)[C@H](C)/C=C(\C)[C@@H](O)[C@@H](OC)C(=O)[C@H](C)C[C@H](C)/C=C/C=C\C=C\1C | inactive: 0.837
C[C@@H]1CN([C@@H](C)CO)C(=O)c2cc(NC(=O)Cc3cn(C)c4ccccc34)ccc2O[C@@H]1CN(C)C(=O)Nc1ccc(C(F)(F)F)cc1 | inactive: 0.987
O=C(O)c1cc2c([nH]c1=O)CCCC2 | inactive: 0.914
Cl.NCCCC(N)(C(=O)O)C(F)F.O (stereo unspecified) | inactive: 0.867
COCC#Cc1ccc2c(c1)O[C@H](CN(C)Cc1ccc(F)cc1)[C@@H](C)CN([C@@H](C)CO)S2(=O)=O | inactive: 1
C[C@@H]1CCCCO[C@@H](CN(C)C(=O)Nc2ccc3c(c2)OCO3)[C@@H](C)CN([C@H](C)CO)C(=O)c2cc(NC(=O)c3ccncc3)ccc2O1 | inactive: 0.982
CN(C)CCCNC(=O)C[C@@H]1CC[C@@H]2[C@@H](COc3ccc(NC(=O)c4ccccc4F)cc3C(=O)N2C)O1 | inactive: 0.979
C[C@H]1CN([C@@H](C)CO)C(=O)c2cc(NS(C)(=O)=O)ccc2O[C@@H]1CN(C)S(=O)(=O)c1ccc(Cl)cc1 | inactive: 0.995
COCC#Cc1ccc([C@H]2[C@@H](CO)N3C(=O)CN(C(=O)c4ccncc4)C[C@@H]23)cc1 | inactive: 0.993
COc1ccc(NC(=O)Nc2ccc3c(c2)C(=O)N([C@@H](C)CO)C[C@H](C)[C@@H](CN(C)C(=O)CCC(F)(F)F)OCCCC[C@H](C)O3)cc1 | inactive: 1.07
Cn1cnc(S(=O)(=O)N[C@@H]2CC[C@@H](CC(=O)NCC3CC3)O[C@H]2CO)c1 | inactive: 0.937
C[C@@H]1CN([C@@H](C)CO)C(=O)Cc2cc(NC(=O)CCC(F)(F)F)ccc2O[C@@H]1CN(C)S(=O)(=O)c1cccs1 | inactive: 0.985
CN1CCN(C(=O)C[C@H]2CC[C@H]3[C@H](COc4ccc(NC(=O)C5CCCCC5)cc4C(=O)N3C)O2)CC1 | inactive: 1.02
CC(C)(C)c1cc(CCC(=O)OCC(COC(=O)CCc2cc(C(C)(C)C)c(O)c(C(C)(C)C)c2)(COC(=O)CCc2cc(C(C)(C)C)c(O)c(C(C)(C)C)c2)COC(=O)CCc2cc(C(C)(C)C)c(O)c(C(C)(C)C)c2)cc(C(C)(C)C)c1O | inactive: 0.993
COc1ccc(S(=O)(=O)N(C)C[C@@H]2Oc3ncc(-c4ccncc4)cc3C(=O)N([C@H](C)CO)C[C@@H]2C)cc1 | inactive: 0.998
C[C@@H]1CCCCO[C@H](CN(C)CC2CC2)[C@H](C)CN([C@H](C)CO)C(=O)c2cc(NC(=O)c3ccccc3)ccc2O1 | inactive: 1
Cn1cnc(CCNC(=O)C[C@@H]2CC[C@H]3[C@@H](COC[C@H](O)CN3C(=O)Nc3ccc(Cl)cc3)O2)c1 | inactive: 0.964
COc1ccc(S(=O)(=O)Nc2ccc3c(c2)C(=O)N([C@H](C)CO)C[C@H](C)[C@H](CN(C)C(=O)Nc2ccc4c(c2)OCO4)OCCCC[C@H](C)O3)cc1 | inactive: 1.04

Structure (SMILES) | relative growth
COc1ccccc1CNC(=O)C[C@H]1CC[C@@H]2[C@H](COC[C@H](O)CN2C(=O)Nc2ccc(Cl)cc2)O1 | inactive: 0.925
C[C@@H]1CN([C@H](C)CO)S(=O)(=O)c2ccc(C#Cc3cccc(F)c3)cc2O[C@H]1CN(C)S(=O)(=O)c1ccccc1F | inactive: 0.947
C[C@@H]1CN([C@@H](C)CO)C(=O)c2cc(NC(=O)C3CCCCC3)ccc2O[C@@H](C)CCCCO[C@H]1CN(C)C(=O)CCC(F)(F)F | inactive: 1
C[C@@H]1CCCCO[C@@H](CN(C)CC2CC2)[C@H](C)CN([C@H](C)CO)C(=O)c2cc(NC(=O)Nc3ccc(F)cc3)ccc2O1 | inactive: 1.02
CC(C)NC(=O)Nc1ccc2c(c1)C(=O)N([C@@H](C)CO)C[C@H](C)[C@@H](CN(C)S(C)(=O)=O)OCCCC[C@@H](C)O2 | inactive: 1.01
C[C@H]1CN([C@@H](C)CO)S(=O)(=O)c2ccc(C#Cc3cccnc3)cc2O[C@@H]1CN(C)CC1CCOCC1 | inactive: 0.976
O=C(C[C@@H]1CC[C@H](NS(=O)(=O)c2ccccc2)[C@@H](CO)O1)NCc1ccncn1 | inactive: 1.01
C[C@@H]1CN([C@@H](C)CO)C(=O)Cc2cc(NC(=O)CCCCCC(=O)Nc3ccccc3N)ccc2O[C@H]1CN(C)C(=O)Nc1ccccc1 | inactive: 0.991
C[C@H](CO)N1C[C@H](C)[C@H](CN(C)C(=O)Cc2ccccc2)OCCCC[C@H](C)Oc2ccc(NS(=O)(=O)c3cccs3)cc2C1=O | inactive: 0.989
CC=Cc1ccc2n(c1=O)C[C@@H]1[C@@H](CO)[C@H](C(=O)NCCc3cn(C)cn3)N(C(=O)C3CC3)[C@H]21 | inactive: 1.01
C[C@H](CO)N1C[C@H](C)[C@@H](CN(C)S(=O)(=O)c2ccccc2)Oc2ccc(NC(=O)Cc3ccccc3)cc2C1=O | inactive: 0.964
COc1ccc(C(=O)Oc2ccc(CCn3c(NC(=O)c4ccc(C(F)(F)F)cc4)nc4cc(C(=O)O)ccc43)cc2)cc1 | inactive: 1
C[C@@H]1CN([C@H](C)CO)C(=O)c2cc(NC(=O)c3ccncc3)ccc2O[C@H]1CN(C)Cc1ccc(-c2ccccc2)cc1 | inactive: 0.992
COc1ccc([Si](C)(C)[C@H]2[C@H](CCn3cc(CCO)nn3)O[C@@]3(C(=O)N(C)c4ccccc43)[C@@H]2C)cc1 | inactive: 0.991
C[C@@H]1CN([C@@H](C)CO)C(=O)c2cc(NC(=O)NC3CCCCC3)ccc2O[C@@H]1CN(C)Cc1ccc(C(=O)Nc2ccccc2N)cc1 | inactive: 0.971
Cc1ccnc2ccccc12 | inactive: 1.03
CCS(=O)(=O)Nc1ccc2c(c1)C(=O)N(C)C[C@@H](OC)[C@H](C)CN(Cc1ccccn1)[C@@H](C)CO2 | inactive: 0.992
C[C@@H]1CCCCO[C@@H](CN(C)C(=O)Cc2ccccc2)[C@@H](C)CN([C@H](C)CO)C(=O)c2cc(NC(=O)Cc3ccccc3)ccc2O1 | inactive: 0.999
